Data from PubChem BioAssay AID463173 (ICCB-Longwood Screening Facility, Harvard Medical School, 2010).
Hit rate of the full screen: of about 52,000 compounds, about 4,300 (8.3%) were called active. Rule as the data show it: active = survival mostly below about 52% (no sharp cut-off); inactive = mostly above about 56%. The list shows a part of the results.

These compounds were tested on DeltatarO mutant (assay: S. aureus survival, RN4220 and DeltatarO strains – OD600, teichoic acid synthesis inhibitors, primary screen (AID 463173)). Conditions: S. aureus RN4220 wild type/DeltatarO growth, OD600, 18 h, active compounds read low, screened at 18.75 µg/mL (by protocol).
With `COc1ccc(N2CC(NC(=O)c3ccc(S(=O)(=O)N4CCOCC4)cc3)CC2=O)cc1` (stereo unspecified) the survival was inactive: 70%. With `CCOC(=O)CSc1ncnc2c1c(-c1ccccc1)cn2-c1ccc(OC)cc1` the survival was inactive: 60%. `CCS(=O)(=O)c1nc(S(=O)(=O)c2ccc(C)cc2)c(NCc2ccccc2Cl)s1` was tested, and the survival was inactive: 81%. In the case of `O=C(NCc1ccc(Cl)cc1)c1cc(-c2ccc(F)cc2)on1`, the survival is reported as inactive: 79%. With `Cc1ccccc1OCC(=O)N(Cc1ccc(C(C)C)cc1)C1CCS(=O)(=O)C1` (stereo unspecified) the survival was active: 31%. `Cc1ccc(C)c(CN2C(=O)C(O)(c3c[nH]c4ccccc34)c3ccccc32)c1` (stereo unspecified) was tested, and the survival was inactive: 142%. `COC(=O)CN1C(=O)C(C)(C)c2cc(S(=O)(=O)Nc3ccc(C(C)C)cc3)ccc21` was tested, and the survival was inactive: 79%. For `Cc1cc(C)nc(/N=C(/N)N2CCCCC2)n1`, the survival was inactive: 105%. With `COc1cccc(NC(=O)c2oc3ccccc3c2NC(=O)Cc2cccc(C)c2)c1` the survival was inactive: 58%. With `COC(=O)c1ccc(Cl)cc1NC(=O)N1CCC(CN2CCC(C)CC2)CC1` the survival was inactive: 75%. For `CCc1cccc(NC(=O)c2coc(=O)c3ccccc23)c1`, the survival was inactive: 54%. `Cc1cn2c(=O)cc(COC(=O)C(C)Oc3ccccc3)nc2s1` (stereo unspecified) was tested, and the survival was inactive: 81%. `CCOc1ccc(-c2nonc2NC(=O)c2oc3cc(Br)ccc3c2C)cc1` was tested, and the survival was inactive: 88%. With `O=C(Cn1c(C(=O)N2CCN(C3CCCCC3)CC2)cc2sccc21)c1ccccc1` the survival was inactive: 100%. In the case of `CC(NC(=O)c1cc2sccc2n1Cc1ccc(F)cc1)c1ccccc1` (stereo unspecified), the survival is reported as inactive: 89%. For `CCc1cccc(C)c1NS(=O)(=O)c1ccc(-n2cccn2)cc1`, the survival was inactive: 117%. With `Cn1c(=O)oc2cc(S(=O)(=O)Nc3ccccc3)ccc21` the survival was inactive: 103%. For `CC(=O)N1CCCc2cc(S(=O)(=O)NCc3ccc(OC(C)C)cc3)ccc21`, the survival was inactive: 80%. In the case of `CCOC(=O)c1c(C)oc2nc(C)nc(NCCc3ccc(S(N)(=O)=O)cc3)c12`, the survival is reported as inactive: 77%. `CCOC(=O)c1[nH]cnc1C(=O)N1CCOCC1` was tested, and the survival was inactive: 63%. In the case of `COc1cc(SC)ccc1C(=O)NCC#N`, the survival is reported as inactive: 105%. `CCOc1ccccc1Nc1ccc2cc(S(=O)(=O)N3CCCCC3)ccc2n1` was tested, and the survival was inactive: 74%. In the case of `CCCSCCCNC(=O)CN1C(=O)COc2ccc(S(=O)(=O)N3CCCCCC3)cc21`, the survival is reported as active: 62%. With `O=C(Nc1ccc(F)cc1F)C1CCCN1S(=O)(=O)c1cccc2nsnc12` (stereo unspecified) the survival was inactive: 94%. In the case of `Cc1cc(NC(=O)CN(c2cccc(C)c2C)S(=O)(=O)c2ccccc2)ccc1Br`, the survival is reported as inactive: 72%. `CCCOc1ccc(CNC(=O)C2CCN(c3nn4c(=O)cc(C)nc4s3)CC2)cc1` was tested, and the survival was inactive: 110%. For `N#Cc1ccccc1NC(=O)C(=O)NCC(c1cccnc1)N1CCN(c2ccccc2)CC1` (stereo unspecified), the survival was inactive: 96%. With `Cc1cccc(C(=O)Nc2cccc(C(=O)OCc3cc(=O)n4nc(C5CC5)sc4n3)c2)c1` the survival was inactive: 83%. With `CCOc1ccc(C(=O)Nc2ccc3nc(SCC(=O)N4CCOCC4)sc3c2)cc1` the survival was inactive: 80%. With `CCN1CCN(C(=O)c2ccc3c(c2)N(Cc2cc(C)ccc2C)C(=O)c2ccccc2S3(=O)=O)CC1` the survival was inactive: 68%. In the case of `Cc1cccc(NC(=O)CN2C(=O)CCc3ccccc32)c1C`, the survival is reported as inactive: 103%. For `CCOc1ccc(CCNC(=O)c2cnc3c(-c4ccccc4)c(C)nn3c2C)cc1OCC`, the survival was active: 20%. In the case of `COc1ccc(N2CCN(c3oc(/C=C/c4cccc(OC)c4)nc3C#N)CC2)cc1`, the survival is reported as inactive: 73%. In the case of `CCc1ccc(CNC(=O)C2CCN(c3nnc(-n4c(C)ccc4C)s3)CC2)cc1`, the survival is reported as inactive: 86%. For `O=[N+]([O-])c1ccc(C(c2sc3nc(-c4ccco4)nn3c2O)N2CCC3(CC2)OCCO3)cc1` (stereo unspecified), the survival was inactive: 87%. In the case of `CC(C)c1ccc(OCC(=O)Nc2cc(-c3nc4ncccc4o3)ccc2Cl)cc1`, the survival is reported as inactive: 150%. `COc1cc(CNCCSc2nnnn2C)ccc1OCc1c(F)cccc1Cl` was tested, and the survival was inactive: 58%. For `Cc1cccc(-c2nnc(SCCC(=O)O)o2)c1`, the survival was inactive: 80%. For `O=C(CN1CCOCC1)n1c2ccccc2c2ccccc21`, the survival was inactive: 90%. For `Cn1c(C(=O)OC(C(=O)NCc2ccccc2)c2ccccc2)cc2sccc21` (stereo unspecified), the survival was inactive: 74%. `CCC(=O)Nc1ccc(C)cc1-c1nc2ccccc2n(Cc2ccccc2)c1=O` was tested, and the survival was inactive: 76%. In the case of `CCN(C(=O)c1cc2c(Cl)nc3ccc(C)cc3c2s1)c1cc(OC)ccc1OC`, the survival is reported as inactive: 61%. For `Cc1oc(-c2cccc(Cl)c2)nc1CSCC(=O)O`, the survival was inactive: 75%. `COc1ccccc1C(=O)Nc1c(C(=O)Nc2ccc(C)cc2)oc2ccccc12` was tested, and the survival was inactive: 84%. In the case of `CC1(c2ccccc2)CC(C)(C)N(C(=O)c2ccccc2Cl)c2ccccc21` (stereo unspecified), the survival is reported as active: -4%. `COc1ccc(NC(=O)C2CCCN2S(=O)(=O)c2ccc3c(c2)CCCC(=O)N3)cc1Cl` (stereo unspecified) was tested, and the survival was inactive: 75%. `COc1cc(C2CC(=O)Nc3cc4c(cc32)OCCO4)cc(OC)c1O` (stereo unspecified) was tested, and the survival was inactive: 97%. `CCCCC(=O)Nc1ccc(OCc2cc(=O)n3ccc(C)cc3n2)cc1` was tested, and the survival was inactive: 89%. For `CCCC1=C(C(=O)OCC)C(c2cccnc2)n2ncnc2N1` (stereo unspecified), the survival was inactive: 79%. In the case of `CCCCN(CCCC)c1nc(-c2ccccc2)nc2ccccc12`, the survival is reported as inactive: 30%. With `Cc1ccc(OCc2cc(=O)n3ccsc3n2)c(NC(=O)c2ccco2)c1` the survival was inactive: 70%. In the case of `COc1ccc(N(C)C(=O)C2CCN(S(=O)(=O)c3cc(Br)cc4c3N(C(C)=O)CC4)CC2)cc1`, the survival is reported as inactive: 99%. For `Cn1c(=O)n(C)c2cc(N3CCCCC3)c(NC(=O)c3c(F)cccc3F)cc21`, the survival was inactive: 75%. For `CCOC(=O)c1cc(-c2ccccc2)n(CCC(=O)NCCc2ccc(OC)c(OC)c2)c1C`, the survival was inactive: 79%. With `Cc1cccc(NC(=O)c2c(N)sc3c2CCC(C)C3)c1` (stereo unspecified) the survival was inactive: 59%. `COc1ccc(-c2cccc(NS(=O)(=O)c3cc(C)ccc3OC)c2)nn1` was tested, and the survival was inactive: 122%. In the case of `CCc1cccc(C)c1NS(=O)(=O)c1ccc(-c2cc(C)no2)s1`, the survival is reported as inactive: 94%. For `O=C(Nc1ccc2nn(-c3ccc(Cl)cc3)nc2c1)c1cc2ccccc2o1`, the survival was inactive: 65%. `Cc1ccccc1Nc1c(-c2ccc(N3CCOCC3)cc2)nc2ccc(Cl)cn12` was tested, and the survival was inactive: 106%. In the case of `CS(=O)(=O)N1CCN(c2ccc(NC(=O)c3ccc4c(c3)OCO4)cc2)CC1`, the survival is reported as inactive: 87%. In the case of `Cc1ccccc1NC(=O)c1c(NC(=O)c2cccs2)sc2c1CCC(C)C2` (stereo unspecified), the survival is reported as inactive: 59%. With `N#Cc1nc(/C=C/c2ccc(F)cc2)oc1NC1CCCCC1` the survival was inactive: 90%. For `O=C(Cn1c(=O)n2nc(-c3cccc(F)c3)nc2c2ccccc21)NCc1ccc(Cl)cc1`, the survival was inactive: 55%. With `COc1cccc(NC(=O)Cn2c(=O)n(Cc3ccco3)c(=O)c3cc(OC)c(OC)cc32)c1` the survival was inactive: 90%. `COc1ccc(S(=O)(=O)N2CCC(C(=O)NC3CC3)CC2)cc1Cl` was tested, and the survival was inactive: 90%. In the case of `Cc1ccn2c(Nc3ccccc3C)c(-c3ccccc3)nc2c1`, the survival is reported as active: 0%. In the case of `Cc1cccc(OCC(=O)Nc2ccccc2OCc2cc(=O)n3cc(C)ccc3n2)c1`, the survival is reported as inactive: 94%. `Cc1ccc(NC(=O)CSc2nnc(COc3ccc(Cl)cc3)o2)c(C)c1` was tested, and the survival was inactive: 47%. For `O=C(Nc1ccc2nc(SCC(=O)N3CCOCC3)sc2c1)c1ccccc1Cl`, the survival was inactive: 83%. `CCn1ccc2cc(S(=O)(=O)N3CCC(C(=O)NCc4ccc(F)cc4)CC3)ccc21` was tested, and the survival was inactive: 85%. For `Cc1ccc(NCc2cccn2-c2nnc(N3CCC(C(=O)NCc4ccc(F)cc4)CC3)s2)cc1`, the survival was inactive: 73%. `CC1CCCCN1CCCNC(=O)Cn1ncc2c3ccccc3n(Cc3ccccc3F)c2c1=O` (stereo unspecified) was tested, and the survival was inactive: 106%. For `COc1cc(Cl)c(NS(=O)(=O)c2ccc(-c3coc(C)n3)cc2)c(OC)c1`, the survival was inactive: 88%. In the case of `CCN(c1ncnc2c1cnn2-c1cccc(Cl)c1)C1CCCCC1`, the survival is reported as inactive: 63%. With `Cc1ccc(-c2cc(C(F)(F)F)c(C#N)c(SCC(=O)Nc3ccccc3F)n2)cc1` the survival was inactive: 55%. In the case of `COc1cccc(CNC(=O)CN2C(=O)CSc3ccc(S(=O)(=O)N4CCCC4)cc32)c1`, the survival is reported as inactive: 90%. With `Cc1cc(C)c(NC(=O)CN2C(=O)CCSc3ccc(S(=O)(=O)N4CCCC4)cc32)c(C)c1` the survival was inactive: 84%. In the case of `COCCn1c(C)cc(O)c(C(c2ccc(Cl)cc2)N2CCCCC2)c1=O` (stereo unspecified), the survival is reported as inactive: 83%. For `COc1ccc(C2C(=O)N(C3CCCCC3)CC(=O)N2C2CCCCC2)cc1` (stereo unspecified), the survival was inactive: 87%. With `CSc1ccc(CNC(=O)Cn2ccc3cc(S(=O)(=O)N4CCCC4)ccc32)cc1` the survival was inactive: 75%. In the case of `CC(C)CCNC(=O)CSc1nc2ccccc2nc1Cc1ccc(Cl)cc1`, the survival is reported as inactive: 78%. In the case of `CCc1ccc(NC(=O)CSc2ccccn2)cc1`, the survival is reported as inactive: 89%. With `CN(C)c1ccc(C(=O)NCc2ccc3c(c2)CCN3C(=O)c2ccccc2)cc1` the survival was inactive: 91%. `CC1CCN(c2nc(-c3ccc(Br)cc3)nc3ccccc23)CC1` was tested, and the survival was inactive: 82%. For `CCN(C(=O)CC(C)C)c1nnc(-c2ccccc2C)s1`, the survival was inactive: 113%. In the case of `Cc1cc(C)cc(NC(=O)CCN2C(=O)c3ccccc3Sc3ncccc32)c1`, the survival is reported as inactive: 75%. In the case of `O=C(Cn1c(=O)n(-c2ccccc2)c(=O)c2sc3ccccc3c21)NC1CCCC1`, the survival is reported as inactive: 122%. `N#C/C(=C\c1ccc(Cl)cc1)c1nc(-c2cc3c(ccc4ccccc43)oc2=O)cs1` was tested, and the survival was inactive: 80%. With `CCOC(=O)C1C(=O)N(C(=O)c2cncc(Br)c2)CC1c1ccccc1` (stereo unspecified) the survival was inactive: 89%. For `O=C(CN1C(=O)CC(c2ccc(F)cc2)=Nc2ccccc21)NCc1ccccc1Cl`, the survival was inactive: 78%. For `CN(C1CCCCC1)S(=O)(=O)c1ccc2c(c1)c(=O)c(C(=O)NCc1ccc(Cl)cc1)cn2C`, the survival was inactive: 71%.
